Growth inhibition call data for 28 compounds are collected here from the antibiotic and cytotoxicity screens of Wong et al. (2023).

Each structure is given as a SMILES string. Some of the results follow.

For the assay, the system named is S. aureus RN4220. The assay can be described thus: growth inhibition call (relative growth <= 0.2). The note with it: 50 µM.
As for `C[C@H]1CCCCO[C@@H](CN(C)Cc2ccc(C(F)(F)F)cc2)[C@@H](C)CN([C@@H](C)CO)C(=O)c2cc(NC(=O)c3ccncc3)ccc2O1`, the growth inhibition call is “inactive”. In the case of `C[N+]1(C)C[C@H](O)[C@H](C(=O)O)C1`, the growth inhibition call is “inactive”. As to `[O-][NH2+]N1CCCCCCC1`, the growth inhibition call is “inactive”. As for `C[C@H]1CN([C@@H](C)CO)C(=O)c2cccc(NC(=O)C3CC3)c2O[C@@H]1CN(C)Cc1ccc(C(=O)O)cc1`, the growth inhibition call is “inactive”. The entry for `N#Cc1cn(C2CCCCC2)c(=O)[nH]c1=O` is “inactive”; for `CN(C)CC(=O)N[C@H]1CC[C@@H](CCNC(=O)C2CC2)O[C@H]1CO` it is “inactive”.

For the compound `C[C@H](CO)N1C[C@H](C)[C@@H](CN(C)S(=O)(=O)c2ccccc2)Oc2ccc(NS(C)(=O)=O)cc2CC1=O`, the growth inhibition call is “inactive”.

Take `CC(C)(C)OC(=O)N1CC(C(=O)O)C1`: the growth inhibition call was “inactive”. For the compound `C[C@@H]1CN([C@@H](C)CO)S(=O)(=O)c2ccc(C#CC(C)(C)O)cc2O[C@H]1CN(C)Cc1ccncc1`, the growth inhibition call is “inactive”. Take `C[C@@H]1CN([C@H](C)CO)C(=O)Cc2cc(NC(=O)Cn3cnnn3)ccc2O[C@H]1CN(C)C(=O)Nc1ccccc1`: the growth inhibition call is “inactive”. With `CCOc1ccc(NC2=NC(=O)/C(=C/c3cc(Br)c(OCc4ccccc4)c(OC)c3)S2)cc1`, the growth inhibition call is “inactive”.

`CC1OC1P(=O)([O-])[O-].[Ca+2]` (stereo not drawn): the growth inhibition call was “inactive”.

Take `C[C@@H]1CN([C@H](C)CO)C(=O)c2c(c3ccccc3n2C)-c2ccccc2CO[C@H]1CN(C)C(=O)NC1CCCCC1`: the growth inhibition call was “inactive”. The entry for `CN(C)CCCNC(=O)C[C@H]1C=C[C@@H](NC(=O)Cc2cccnc2)[C@@H](CO)O1` is “inactive”; for `O=C(c1ccc(-n2cnnn2)cc1)N1CCN([C@H]2CCS(=O)(=O)C2)CC1` it is “inactive”. As for `C[C@@H]1CN([C@H](C)CO)C(=O)c2cc(-c3cccc(C#N)c3)cnc2O[C@H]1CN(C)C(=O)c1cnccn1`, the growth inhibition call is “inactive”. Then `Cc1cc(C)c2[nH]c3ccccc3c2n1`, with “inactive”; and `C[C@@H]1CN([C@@H](C)CO)C(=O)Cc2cc(NC(=O)Nc3ccc(C(F)(F)F)cc3)ccc2O[C@H]1CN(C)S(=O)(=O)c1ccc(Cl)cc1`, with “inactive”.

`C[C@H]1CN([C@@H](C)CO)C(=O)Cc2cc(NC(=O)Nc3cccc(C(F)(F)F)c3)ccc2O[C@H]1CN(C)S(=O)(=O)c1ccc(Cl)cc1`: the growth inhibition call was “inactive”. Take `O=C(O)C[C@](O)(CC(=O)[O][Bi]1[O]C(=O)C[C@@](O)(CC(=O)O)C(=O)[O]1)C(=O)O`: the growth inhibition call is “inactive”.

Take `C[C@@H]1CCCCO[C@@H](CN(C)C(=O)CCCN(C)C)[C@@H](C)CN([C@@H](C)CO)C(=O)c2cc(NC(=O)Nc3ccc(C(F)(F)F)cc3)ccc2O1`: the growth inhibition call is “inactive”. As to `Cc1c(C(=O)Nc2ccc(Oc3ccnc4cc(OCC(C)(C)O)ccc34)c(F)c2)c(=O)n(-c2ccccc2)n1C`, the growth inhibition call was “inactive”.

With `COc1ccc2c3c(n(c2c1)C)[C@H](CO)N(C[C@]13CN(C1)C(=O)Nc1cccc(c1)F)C(=O)CN1CCOCC1`, the growth inhibition call is “inactive”. In the case of `C[C@H]1CN([C@@H](C)CO)C(=O)c2cc(NS(C)(=O)=O)ccc2O[C@@H]1CN(C)S(=O)(=O)c1ccc(F)cc1`, the growth inhibition call is “inactive”. Take `NS(=O)(=O)c1cc(C(=O)O)c(NCc2ccco2)cc1Cl`: the growth inhibition call was “inactive”.

`C[C@@H]1CCCCO[C@@H](CN(C)C(=O)Nc2ccc(C(F)(F)F)cc2)[C@@H](C)CN([C@H](C)CO)C(=O)c2cc(NC(=O)c3ccccc3)ccc2O1`: the growth inhibition call was “inactive”. For the compound `NCCCCCNC(=O)[C@@H]1C[C@@H]2C(=O)N[C@@H](Cc3ccccc3)C(=O)N2[C@@H]1c1cccc(OCCO)c1`, the growth inhibition call was “inactive”.

For `CN1CCc2c(c3ccccc3n2Cc2ccccc2)C1`, the growth inhibition call is “inactive”.
